# Data taken from the supplement of paper PMC8728848.
# The list shows a part of the results.
# Tests used:
# Assay in all cases: glycan array binding signal (z-score within array); higher = stronger binding
# Settings in all cases: glycan notation: IUPAC condensed, linker removed
# [1] = molecular target: Gal(b1-3)GlcNAc(b1-6)[Gal(b1-3)]GalNAc
# How it was run: (§1)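 Glycan array data were curated from 3228 arrays in the Consortium for Functional Glycomics database and kept only where the protein sequence was available. Glycan names were converted to IUPAC-condensed notation, and columns mapping to the same glycan were averaged. The binding signal is a within-array Z-score, averaged across arrays of the same protein sequence at different concentrations or buffers and across linkers. Negative Z-scores can be read as non-binding.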
# [2] = molecular target: Gal(b1-3)GlcNAc6S
# How it was run: as §1
# [3] = molecular target: Gal(b1-3)[Fuc(a1-4)]GlcNAc
# How it was run: as §1
# [4] = molecular target: Gal(b1-3)[Fuc(a1-4)]GlcNAc(b1-2)Man
# How it was run: as §1
# [5] = molecular target: Gal(b1-3)[Fuc(a1-4)]GlcNAc(b1-2)Man(a1-3)[Gal(b1-3)[Fuc(a1-4)]GlcNAc(b1-2)Man(a1-6)]Man(b1-4)GlcNAc(b1-4)[Fuc(a1-6)]GlcNAc
# How it was run: as §1
# [6] = molecular target: Gal(b1-3)[Fuc(a1-4)]GlcNAc(b1-3)Gal(b1-3)[Fuc(a1-4)]GlcNAc
# How it was run: as §1
# [7] = molecular target: Gal(b1-3)[Fuc(a1-4)]GlcNAc(b1-3)Gal(b1-4)GlcNAc
# How it was run: as §1
# [8] = molecular target: Gal(b1-3)[Fuc(a1-4)]GlcNAc(b1-3)Gal(b1-4)[Fuc(a1-3)]GlcNAc
# How it was run: as §1
# [9] = molecular target: Gal(b1-3)[Fuc(a1-4)]GlcNAc(b1-6)GalNAc
# How it was run: as §1
# [10] = molecular target: Gal(b1-3)[GlcNAc(b1-6)]GalNAc
# How it was run: as §1
# [11] = molecular target: Gal(b1-3)[GlcNAc(b1-6)]GlcNAc
# How it was run: as §1
# [12] = molecular target: Gal(b1-3)[Neu5Ac(a2-6)]GalNAc
# How it was run: as §1
# [13] = molecular target: Gal(b1-3)[Neu5Ac(a2-6)]GlcNAc
# How it was run: as §1
# [14] = molecular target: Gal(b1-3)[Neu5Ac(a2-6)]GlcNAc(a1-4)Gal(b1-4)Glc
# How it was run: as §1
# [15] = molecular target: Gal(b1-3)[Neu5Ac(a2-6)]GlcNAc(b1-4)Gal(b1-4)Glc
# How it was run: as §1
# [16] = molecular target: Gal(b1-3)[Neu5Ac(a2-6)]GlcNAc(b1-6)Gal(b1-4)Glc
# How it was run: as §1
# [17] = molecular target: Gal(b1-3)[Neu5Ac(b2-6)]GalNAc
# How it was run: as §1
# [18] = molecular target: Gal(b1-3)[Neu5Ac(b2-6)]GlcNAc
# How it was run: as §1
# [19] = molecular target: Gal(b1-4)Gal
# How it was run: as §1
# [20] = molecular target: Gal(b1-4)GalNAc(a1-3)[Fuc(a1-2)]Gal(b1-4)GlcNAc
# How it was run: as §1
# [21] = molecular target: Gal(b1-4)GalNAc(b1-3)[Fuc(a1-2)]Gal(b1-4)GlcNAc
# How it was run: as §1
# [22] = molecular target: Gal(b1-4)Glc
# How it was run: as §1
# [23] = molecular target: Gal(b1-4)Glc6S
# How it was run: as §1
# [24] = molecular target: Gal(b1-4)GlcNAc
# How it was run: as §1
# [25] = molecular target: Gal(b1-4)GlcNAc(a1-6)Gal(b1-4)GlcNAc
# How it was run: as §1
# [26] = molecular target: Gal(b1-4)GlcNAc(b1-2)Man
# How it was run: as §1
# [27] = molecular target: Gal(b1-4)GlcNAc(b1-2)Man(a1-3)Man(b1-4)GlcNAc(b1-4)GlcNAc
# How it was run: as §1
# [28] = molecular target: Gal(b1-4)GlcNAc(b1-2)Man(a1-3)[Gal(b1-4)GlcNAc(b1-2)Man(a1-6)]Man(b1-4)GlcNAc(b1-4)GlcNAc
# How it was run: as §1
# [29] = molecular target: Gal(b1-4)GlcNAc(b1-2)Man(a1-3)[Gal(b1-4)GlcNAc(b1-2)Man(a1-6)]Man(b1-4)GlcNAc(b1-4)[Fuc(a1-6)]GlcNAc
# How it was run: as §1
# [30] = molecular target: Gal(b1-4)GlcNAc(b1-2)Man(a1-3)[Gal(b1-4)GlcNAc(b1-2)Man(a1-6)][Gal(b1-4)GlcNAc(b1-4)]Man(b1-4)GlcNAc(b1-4)[Fuc(a1-6)]GlcNAc
# How it was run: as §1
# [31] = molecular target: Gal(b1-4)GlcNAc(b1-2)Man(a1-3)[Gal(b1-4)GlcNAc(b1-2)Man(a1-6)][GlcNAc(b1-4)]Man(b1-4)GlcNAc(b1-4)[Fuc(a1-6)]GlcNAc
# How it was run: as §1
# [32] = molecular target: Gal(b1-4)GlcNAc(b1-2)Man(a1-3)[GlcNAc(b1-2)Man(a1-6)]Man(b1-4)GlcNAc(b1-4)GlcNAc
# How it was run: as §1
# [33] = molecular target: Gal(b1-4)GlcNAc(b1-2)Man(a1-3)[GlcNAc(b1-4)][Gal(b1-4)GlcNAc(b1-2)Man(a1-6)]Man(b1-4)GlcNAc(b1-4)GlcNAc
# How it was run: as §1
# [34] = molecular target: Gal(b1-4)GlcNAc(b1-2)Man(a1-3)[Man(a1-6)]Man(b1-4)GlcNAc(b1-4)GlcNAc
# How it was run: as §1
# [35] = molecular target: Gal(b1-4)GlcNAc(b1-2)Man(a1-6)Man(b1-4)GlcNAc(b1-4)GlcNAc
# How it was run: as §1
# [36] = molecular target: Gal(b1-4)GlcNAc(b1-2)Man(a1-6)[GlcNAc(b1-2)Man(a1-3)]Man(b1-4)GlcNAc(b1-4)GlcNAc
# How it was run: as §1
# [37] = molecular target: Gal(b1-4)GlcNAc(b1-2)Man(a1-6)[Man(a1-3)]Man(b1-4)GlcNAc(b1-4)GlcNAc
# How it was run: as §1
# [38] = molecular target: Gal(b1-4)GlcNAc(b1-2)[Gal(b1-4)GlcNAc(b1-4)]Man(a1-3)[Gal(b1-4)GlcNAc(b1-2)Man(a1-6)]Man(b1-4)GlcNAc(b1-4)GlcNAc
# How it was run: as §1
# [39] = molecular target: Gal(b1-4)GlcNAc(b1-2)[Gal(b1-4)GlcNAc(b1-4)]Man(a1-3)[Gal(b1-4)GlcNAc(b1-2)[Gal(b1-4)GlcNAc(b1-6)]Man(a1-6)]Man(b1-4)GlcNAc(b1-4)GlcNAc
# How it was run: as §1
# [40] = molecular target: Gal(b1-4)GlcNAc(b1-2)[Gal(b1-4)GlcNAc(b1-4)]Man(a1-3)[GlcNAc(b1-4)][Gal(b1-4)GlcNAc(b1-2)Man(a1-6)]Man(b1-4)GlcNAc(b1-4)GlcNAc
# How it was run: as §1
# [41] = molecular target: Gal(b1-4)GlcNAc(b1-2)[Gal(b1-4)GlcNAc(b1-4)]Man(a1-3)[GlcNAc(b1-4)][Gal(b1-4)GlcNAc(b1-2)[Gal(b1-4)GlcNAc(b1-6)]Man(a1-6)]Man(b1-4)GlcNAc(b1-4)GlcNAc
# How it was run: as §1
# [42] = molecular target: Gal(b1-4)GlcNAc(b1-2)[Gal(b1-4)GlcNAc(b1-6)]Man(a1-6)[Gal(b1-4)GlcNAc(b1-2)Man(a1-3)]Man(b1-4)GlcNAc(b1-4)GlcNAc
# How it was run: as §1
# [43] = molecular target: Gal(b1-4)GlcNAc(b1-2)[Gal(b1-4)GlcNAc(b1-6)]Man(a1-6)[Gal(b1-4)GlcNAc(b1-2)Man(a1-3)]Man(b1-4)GlcNAc(b1-4)[Fuc(a1-6)]GlcNAc
# How it was run: as §1
# [44] = molecular target: Gal(b1-4)GlcNAc(b1-2)[Gal(b1-4)GlcNAc(b1-6)]Man(a1-6)[GlcNAc(b1-4)][Gal(b1-4)GlcNAc(b1-2)Man(a1-3)]Man(b1-4)GlcNAc(b1-4)GlcNAc
# How it was run: as §1
# [45] = molecular target: Gal(b1-4)GlcNAc(b1-2)[Gal(b1-4)GlcNAc(b1-6)]Man(a1-6)[GlcNAc(b1-4)][Gal(b1-4)GlcNAc(b1-2)[Gal(b1-4)GlcNAc(b1-4)]Man(a1-3)]Man(b1-4)GlcNAc(b1-4)[Fuc(a1-6)]GlcNAc
# How it was run: as §1
binder,measurement,setting,value
"Gal 2 (Homo sapiens), P05162 (protein) MTGELEVKNMDMKPGSTLKITGSIADGTDGFVINLGQGTDKLNLHFNPRFSESTIVCNSLDGSNWGQEQREDHLCFSPGSEVKFTVTFESDKFKVKLPDGHELTFPNRLGHSHLSYLSVRGGFNMSSFKLKE",glycan array binding signal (z-score),[1],0.163
same,glycan array binding signal (z-score),[2],-0.146
same,glycan array binding signal (z-score),[3],-0.233
same,glycan array binding signal (z-score),[4],-0.142
same,glycan array binding signal (z-score),[5],0.139
same,glycan array binding signal (z-score),[6],-0.144
same,glycan array binding signal (z-score),[7],0.086
same,glycan array binding signal (z-score),[8],-0.269
same,glycan array binding signal (z-score),[9],-0.236
same,glycan array binding signal (z-score),[10],-0.216
same,glycan array binding signal (z-score),[11],-0.512
same,glycan array binding signal (z-score),[12],-0.219
same,glycan array binding signal (z-score),[13],-0.477
same,glycan array binding signal (z-score),[14],-0.056
same,glycan array binding signal (z-score),[15],-0.217
same,glycan array binding signal (z-score),[16],-0.246
same,glycan array binding signal (z-score),[17],-0.237
same,glycan array binding signal (z-score),[18],-0.53
same,glycan array binding signal (z-score),[19],-0.253
same,glycan array binding signal (z-score),[20],5.71
same,glycan array binding signal (z-score),[21],-0.291
same,glycan array binding signal (z-score),[22],-0.245
same,glycan array binding signal (z-score),[23],-0.222
same,glycan array binding signal (z-score),[24],-0.227
same,glycan array binding signal (z-score),[25],-0.219
same,glycan array binding signal (z-score),[26],-0.092
same,glycan array binding signal (z-score),[27],-0.166
same,glycan array binding signal (z-score),[28],1.65
same,glycan array binding signal (z-score),[29],-0.177
same,glycan array binding signal (z-score),[30],-0.236
same,glycan array binding signal (z-score),[31],-0.215
same,glycan array binding signal (z-score),[32],-0.232
same,glycan array binding signal (z-score),[33],-0.215
same,glycan array binding signal (z-score),[34],-0.312
same,glycan array binding signal (z-score),[35],-0.13
same,glycan array binding signal (z-score),[36],-0.287
same,glycan array binding signal (z-score),[37],-0.223
same,glycan array binding signal (z-score),[38],-0.214
same,glycan array binding signal (z-score),[39],-0.258
same,glycan array binding signal (z-score),[40],0.049
same,glycan array binding signal (z-score),[41],-0.213
same,glycan array binding signal (z-score),[42],-0.091
same,glycan array binding signal (z-score),[43],-0.034
same,glycan array binding signal (z-score),[44],-0.086
same,glycan array binding signal (z-score),[45],-0.211
